The shares of active, inactive and inconclusive entries below differ from those in the screen. For some assays here: Potencies of inconclusive entries are doubtful fits and often do not repeat. Active and inactive are the calls of the source. Unless noted, the call rests on the fitted dose curve; in most records, active means well fitted curve in the direction sought with a large enough effect; inconclusive means small, poorly fitted or top-dose-only effect, or another doubt; inactive means no such curve, though single readings can be large; an effect the other way counts as inactive or inconclusive.
What was measured:
[1] = Cell Viability - BJ (AID 421; calls by dose curve;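 further: potency means the concentration at half of the fitted maximal effect; cells exposed to compound for 40 hours at 37 °C before readout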); conditions: BJ fibroblast viability, qHTS
Outline: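 Cytotoxicity in human BJ foreskin fibroblasts is scored as loss of cellular ATP after a 40-hour exposure, measured by luciferase luminescence. Controls are DMSO and 100 uM tamoxifen.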

[2] = Cell Viability - Hek293 (AID 427;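 active means compounds whose dose-response curve shows a full or clear partial loss of cell viability, called from curve shape rather than a numeric limit; inconclusive means weak partial curves or an effect only at the top dose; inactive means no dose-dependent loss of viability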;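 further: potency means the concentration at half of the fitted maximal effect; cells exposed to compound for 40 hours at 37 °C before reading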); conditions: qHTS
Outline: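 qHTS, human embryonic kidney (adenovirus-transformed) cells; 40 hr cpd, 37 °C; CellTiter-Glo ATP luminescence. Norm: DMSO = 0, 100 uM tamoxifen = 100% inhibition. Hill-fit AC50.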

[3] = Cell Viability - MRC5 (AID 434; calls by dose curve;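 further: potency means the concentration at half of the fitted maximal effect; cells exposed to compound for 40 hours at 37 °C; potency reflects cytotoxicity seen as loss of intracellular ATP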); conditions: MRC5 lung fibroblast viability, qHTS
Outline: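 Decrease in intracellular ATP, quantified by luciferase light output, reflects compound toxicity toward MRC5 cells exposed for 40 hr in complete culture medium. Concentration-response curves, scaled between DMSO and 100 uM tamoxifen, gave AC50 values.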

[4] = target: Mitogen-activated protein kinase 10 (Mus musculus) (UniProt Q61831); assay: JNK3 AlphaScreen Assay (AID 530; active means well fitted curve in either direction with a large enough effect, not every such curve was filed as active; inconclusive means small, poorly fitted or top-dose-only effect, or another doubt;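 further: kinase came from lysate of stimulated human HepG2 cells; signal reports phosphorylation of biotinylated GST-cJun 1-79 at Ser73 with 10 µM ATP; potency means the concentration at half of the fitted maximal effect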); conditions: JNK3 lysate, c-Jun phosphorylation; activity change, negative = inhibition: at 57.1 µM (top of the series)
Outline: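 Biotinylated GST-cJun(1-79) served as substrate for JNK3 in HepG2 lysates stimulated with IL-1beta and TNF-alpha. ATP was 10 uM final, pH 7.6. Ser73 phosphorylation was quantified by AlphaScreen (680 nm excitation).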

[5] = Cell Viability - HUV-EC-C (AID 542); conditions: HUV-EC-C endothelial cell viability, qHTS; series mostly up to 92.2 µM; further: potency means the concentration at half of the fitted maximal effect; nearly all actives have a fitted effect of over 35% in size
Outline: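 Luminescent ATP read-out (CellTiter-Glo, 20 min room temperature) after 40 hr compound treatment of HUV-EC-C cells at 37 °C. Concentration-response data fitted with the standard Hill equation to give AC50; tamoxifen and doxorubicin served as positive controls.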

[6] = Cell Viability - H-4-II-E (AID 543); conditions: H-4-II-E rat hepatoma viability; series mostly up to 92.2 µM; further: potency means the concentration at half of the fitted maximal effect; nearly all actives have a fitted effect of over 35% in size
Outline: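 qHTS, rat hepatoma H-4-II-E, 1500 cells/well; 40 hr compound exposure, 37 °C; CellTiter-Glo ATP luminescence after 20 min RT; AC50 by standard Hill fit.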

[7] = Cell Viability - Renal Proximal Tubule (AID 545); conditions: renal proximal tubule cells viability; activity change, negative = cytotoxicity: at 91.7 µM (top of the series) unless noted; further: nearly all actives have a fitted effect of over 40% in size
Outline: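 Viability taken as intracellular ATP (CellTiter-Glo luminescence) after 40 hr, 37 °C compound treatment of primary proximal tubule cells from rat kidney, 1000 cells/well; Hill-equation fits of qHTS concentration-response data gave AC50.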

[8] = Cell Viability - Mesenchymal (AID 546); conditions: mesenchymal cells viability, qHTS; activity change, negative = cytotoxicity: at 91.7 µM (top of the series);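 further: cells exposed to compound for 40 hours before reading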
Outline: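 In this qHTS cytotoxicity format, glomerulus-derived human mesenchymal kidney cells received compound for 40 hr, then luciferase-based ATP quantitation. Concentration-response data were fitted with the Hill equation.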

[9] = Cellular Toxicity (caspase-3) Jurkat (AID 655); conditions: Jurkat caspase-3 activation, luminescence; caspase-3 activation: at 92.2 µM (top of the series), DMSO = 0%, tamoxifen = 100%;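 further: cells exposed to compound for 16 h at 37 °C before reading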
Outline: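 Luminescent Caspase-Glo 3/7 read-out (20 min, room temperature) after 16 h compound treatment at 37 C of 5000 Jurkat cells per well. AC50 derived by Hill-equation fitting, scaled between DMSO basal and 100 uM tamoxifen stimulation.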

[10] = Cellular Toxicity (caspase-3) H-4-II-E (AID 663); conditions: H-4-II-E rat hepatoma; Potency: caspase-3 activation; caspase-3 activation: at 92.2 µM (top of the series), scaled: DMSO 0%, 100 µM tamoxifen 100%;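 further: cells exposed to compound for 16 hr before readout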
Outline: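 Caspase 3/7 activation measured in H-4-II-E cells in complete culture medium after 16 hr treatment at 37 °C, using luciferase-coupled substrate readout; AC50 values come from Hill-equation fits of normalized concentration-response data.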

[11] = target: Cytochrome P450 3A4 (Homo sapiens) (UniProt P08684); assay: qHTS Assay for Inhibitors and Substrates of Cytochrome P450 3A4 (AID 884); conditions: recombinant CYP3A4, Luciferin-PPXE luminescence; series mostly up to 57.1 µM; further: on the % scale 0 is the no-effect control and ±100 the full control effect; nearly all actives have a fitted effect of over 50% in size
Sequence of UniProt P08684 (P08684 whole entry, looked up): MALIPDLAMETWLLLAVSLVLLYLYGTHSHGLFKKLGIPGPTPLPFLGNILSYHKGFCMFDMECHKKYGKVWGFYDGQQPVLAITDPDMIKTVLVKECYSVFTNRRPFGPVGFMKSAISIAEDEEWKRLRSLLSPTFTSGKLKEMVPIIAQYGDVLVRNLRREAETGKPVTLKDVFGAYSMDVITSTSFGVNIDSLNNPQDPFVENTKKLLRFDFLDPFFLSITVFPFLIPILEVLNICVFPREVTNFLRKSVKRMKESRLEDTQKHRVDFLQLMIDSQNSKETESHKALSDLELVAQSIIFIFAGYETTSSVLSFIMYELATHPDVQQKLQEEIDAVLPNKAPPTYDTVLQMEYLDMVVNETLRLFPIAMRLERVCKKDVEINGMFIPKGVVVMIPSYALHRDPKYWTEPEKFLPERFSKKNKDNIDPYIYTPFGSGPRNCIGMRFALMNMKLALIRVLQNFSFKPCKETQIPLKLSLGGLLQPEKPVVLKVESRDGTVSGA
Outline: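 Luminescent readout of luciferin produced by CYP3A4 (20 nM) dealkylation of Luciferin-PPXE, 25 uM (its KM). NADPH-driven reaction ran 60 min at RT after 10 min compound preincubation; data scaled to 57 uM ketoconazole as 100% inhibition.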

[12] = Cell Viability - LYMP2-001 (AID 921); conditions: LYMP2-001 lymphoblastoid cell viability; activity change, negative = cytotoxic: at 92.2 µM (top of the series); further: potency means the concentration at half of the fitted maximal effect; nearly all actives have a fitted effect of over 70% in size
Outline: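 Cellular ATP loss read by luciferase luminescence after 24 h compound exposure at 37 C in complete medium. LYMP2-001 lymphoblastoid cells, 2500/well; qHTS concentration-response data fitted with Hill equation for AC50.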

[13] = MultiTox-Fluor Cytotoxicity Assay - LYMP1-001 - Dead Cells (AID 946); conditions: LYMP1-001 lymphoblastoid cells, dead-cell protease fluorescence; cytotoxicity (dead cells): at 92.2 µM (top of the series); further: potency means the concentration at half of the fitted maximal effect
Outline: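 Seed 2500 LYMP1-001 cells/well, incubate 5 hr at 37 C; add compound, 16 hr at 37 C; add MultiTox-Fluor reagent, 60 min RT; read dead-cell fluorescence Ex/Em=485/520. Normalize to DMSO and 15 uM tetraoctylammonium bromide.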

[14] = Cell Viability - LYMP1-003 - Assay at 40 hr (AID 964); conditions: LYMP1-003 lymphoblastoid viability; series mostly up to 92.2 µM; further: potency means the concentration at half of the fitted maximal effect; nearly all actives have a fitted effect of over 60% in size
Outline: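 LYMP1-003 lymphoblastoid cells, 2500/well; 5 hr preincubation, 40 hr compound exposure, 37 C; CellTiter-Glo 30 min RT; luminescence; Hill-fit AC50. Positive control tetraoctylammonium bromide.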

[15] = Cell Viability - LYMP2-004 (AID 966); conditions: LYMP2-004 lymphoblastoid cell viability, qHTS; activity change, negative = cytotoxicity: at 92.2 µM (top of the series); further: potency means the concentration at half of the fitted maximal effect; nearly all actives have a fitted effect of over 65% in size
Outline: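 Luminescent ATP read-out (CellTiter-Glo, 30 min RT) after 24 hr compound exposure at 37 C; 2500 lymphoblastoid cells/well, complete medium. Decrease in ATP = cytotoxicity; AC50 from standard Hill model.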

[16] = Cell Viability - LYMP2-005 (AID 967); conditions: LYMP2-005 lymphoblastoid cell viability; series mostly up to 92.2 µM; further: potency means the concentration at half of the fitted maximal effect
Outline: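 LYMP2-005 human lymphoblastoid cells (2500/well) were treated with compounds for 24 h at 37 C. Intracellular ATP was then measured by CellTiter-Glo luminescence after 30 min at room temperature. AC50 values came from Hill-equation fits of qHTS concentration-response data.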

[17] = Cell Viability - LYMP2-011 (AID 969); conditions: LYMP2-011 lymphoblastoid cells viability; viability change, negative = cytotoxic: at 92.2 µM (top of the series); further: potency means the concentration at half of the fitted maximal effect; nearly all actives have a fitted effect of over 60% in size
Outline: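 Luminescent ATP read-out (CellTiter-Glo, 30 min RT) after 24 hr compound exposure at 37 C in human lymphoblastoid cells, 2500 cells/well. Decreasing ATP indicates cytotoxicity; AC50 from standard Hill fit.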

[18] = Cell Viability - LYMP2-013 (AID 970); conditions: LYMP2-013 lymphoblastoid cells viability; activity change, negative = cytotoxic: at 92.2 µM (top of the series); further: potency means the concentration at half of the fitted maximal effect; nearly all actives have a fitted effect of over 55% in size
Outline: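 CellTiter-Glo luminescence (cellular ATP) read after 30 min at RT. Cells: human lymphoblastoid line, 2500/well, 24 hr compound exposure at 37 C. Tetraoctylammonium bromide positive control; AC50 via standard Hill fit of qHTS titrations.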

[19] = Cell Viability - LYMP2-017 (AID 972); conditions: LYMP2-017 lymphoblastoid cell viability; series mostly up to 92.2 µM; further: potency means the concentration at half of the fitted maximal effect; nearly all actives have a fitted effect of over 55% in size
Outline: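 Luminescent ATP read-out (CellTiter-Glo, 30 min RT) reports viable cell number. Cells: human lymphoblastoid line, 2500 per well, 5 hr preincubation, 24 hr compound exposure at 37 C. AC50 is derived from qHTS concentration-response data using the standard Hill model.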

[20] = Cell Viability - LYMP2-021 (AID 974); conditions: LYMP2-021 lymphoblastoid cells viability; series mostly up to 92.2 µM;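 further: potency means the concentration at half of the fitted maximal effect; compound exposure lasts 24 hours at 37 °C; nearly all actives have a fitted effect of over 55% in size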
Outline: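 ATP luminescence (CellTiter-Glo, 30 min RT) after 24 h compound exposure at 37 C; 2500 human lymphoblastoid cells/well, 5 h settle beforehand. Cytotoxicity = concentration-dependent ATP drop, AC50 by Hill fit.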

[21] = Cell Viability - LYMP2-023 (AID 975); conditions: LYMP2-023 lymphoblastoid cell viability; series mostly up to 92.2 µM; further: potency means the concentration at half of the fitted maximal effect; nearly all actives have a fitted effect of over 55% in size
Outline: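 CellTiter-Glo luminescence after 30 min at room temperature; decrease in intracellular ATP reflects toxicity. Cells: human lymphoblastoid line, 2500/well, 24 hr compound exposure at 37 C. AC50 fitted to standard Hill equation from concentration-response.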

[22] = Cell Viability - LYMP2-002 (AID 977); conditions: LYMP2-002 lymphoblastoid cell viability, qHTS; activity change, negative = cytotoxic: at 92.2 µM (top of the series); further: potency means the concentration at half of the fitted maximal effect
Outline: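 In this qHTS viability screen, 2500 human lymphoblastoid cells per well receive compound for 24 hr at 37 C, and luciferase-based ATP luminescence gives the viability signal. Tetraoctylammonium bromide serves as positive control.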

[23] = Cell Viability - LYMP2-006 (AID 978); conditions: LYMP2-006 lymphoblastoid cell viability, qHTS; series mostly up to 92.2 µM; further: potency means the concentration at half of the fitted maximal effect; nearly all actives have a fitted effect of over 60% in size
Outline: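 Potency values are Hill-fit AC50s for decreases in intracellular ATP (CellTiter-Glo luminescence). LYMP2-006 lymphoblastoid cells, 2500 per well, were exposed to compound in complete culture medium for 24 hr at 37 C.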
Tags describe the fitted curve by direction and shape.

CCc1cccc(CC)c1N(COC)C(=O)CCl
active: Potency [5] 50.1 µM
inactive: Potency [8] | caspase-3 activation [10] -1.23% | Potency [11]
inconclusive: Potency [1] 70.5 µM [single point] | Potency [2] 132 µM [partial curve] | Potency [3] 83.5 µM [single point] | Potency [4] 12.6 µM [activator, full curve, poor fit] | Potency [6] 79.4 µM [falling, single point] | activity change, negative = cytotoxicity [7] -54.8% [at 91.7 µM, primary cells of rat origin] | caspase-3 activation [9] 65% | Potency [12] 39.8 µM [cytotoxic, partial curve, poor fit] | Potency [13] 50.1 µM [cytotoxic, partial curve, poor fit] | Potency [14] 39.8 µM [cytotoxic, partial curve] | Potency [15] 39.8 µM [cytotoxic, partial curve, poor fit] | Potency [16] 50.1 µM [cytotoxic, partial curve, poor fit] | Potency [17] 79.4 µM [cytotoxic, single point] | Potency [18] 79.4 µM [cytotoxic, single point] | Potency [19] 50.1 µM [cytotoxic, partial curve, poor fit] | Potency [20] 79.4 µM [cytotoxic, single point] | Potency [21] 79.4 µM [cytotoxic, single point] | Potency [22] 50.1 µM [cytotoxic, partial curve, poor fit] | Potency [23] 50.1 µM [cytotoxic, partial curve, poor fit]

Source: PubChem BioAssay (NCATS)
